Data reported in PubChem BioAssay AID1508623 (National Center for Advancing Translational Sciences (NCATS), 2021).
About 450 (0.94%) of roughly 48,000 compounds were called active. About 19% were inconclusive and are not listed. The call rests on the fitted dose curve; in most records, active means well fitted inhibition curve with a large enough effect; inconclusive means small, poorly fitted or top-dose-only effect; inactive means no such curve, though single readings can be large or run the other way. This is one part of the list.

experiment: Primary qHTS for Identification of Small Molecule Inhibitors of Huntingtin Promoter Activity; settings: HEK293 HTT promoter firefly luciferase reporter (activity 0% = vehicle and -100% = no light), 24 h; series mostly up to 57.5 µM; activity change, negative = inhibition: at the top concentration; further: nearly all actives have a fitted effect of over 50% in size
Outline: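 Luminescence was read after Dual-Glo reagent and a 10 min room-temperature incubation. Values were normalized to vehicle (0% activity) and zero RLU (-100% activity). Reporter HEK293 cells had been exposed to compounds (up to 57.5 uM final) for 24 h.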

Activity change, negative = inhibition, inactive:
CCCN1CCN(C(=O)Cn2c(-c3cccs3)cc3cc(F)ccc32)CC1 -3.25%
O=C(CSc1cn(CC(=O)N2CCCCC2)c2ccccc12)Nc1ccccc1 -28.9%
Cc1ccc(C)c(NC(=O)C2CCCN(c3ncnc4onc(C)c34)C2)c1 (stereo not drawn) -10.6%
O=C(Cn1c(=O)n(-c2ccccc2)c(=O)c2c3c(sc21)CCCC3)Nc1ccc(F)cc1F -4.06%
Cc1cc(=O)n(Cc2ccc(Cl)cc2)c2c1c(C)nn2-c1ccccc1 -8.84%
O=C(NCc1noc2ccccc12)N1CCN(c2ccccc2)CC1 11.8%
O=C(NCC(c1ccco1)S(=O)(=O)c1cccs1)c1ccc(F)c(F)c1 (stereo not drawn) -12.1%
CCc1ccccc1NC(=O)N1CCCn2nc(C)cc21 -14.6%
Cc1nc(-c2ccccc2)sc1-c1ccc(SCC(=O)NCc2ccccc2Cl)nn1 13.2%
Cc1nn(C)c2c1c(-c1ccccc1)cc(=O)n2CC(=O)NC(C)c1ccccc1 (stereo not drawn) -22.9%
CCOc1ccc(-c2cc3nc(C4CCN(C(=O)OC(C)(C)C)CC4)c(C(=O)Nc4cc(OC)ccc4OC)cn3n2)cc1 -30.8%
Cc1ccc(Cl)cc1NC(=O)c1sc(-n2nc(C)c(Cc3ccc4c(c3)OCO4)c2C)nc1C -2.8%
CCCCCn1c(CN2CCN(c3ccc(OC)cc3)CC2)nc2c1c(=O)[nH]c(=O)n2C -19.3%
Cc1ccc(Cl)cc1NC(=O)Nc1cccc(OCc2cc(=O)n3ccccc3n2)c1 13.8%
Cc1cc(=O)n(Cc2ccccc2)c2c1c(C)nn2C -28.8%
COCCNC(=O)c1ccc2nc(Cc3ccccc3)oc2c1 8.89%
CC(C)N(CCCNC(=O)Cn1ncc2c([nH]c3ccccc32)c1=O)Cc1ccccc1 -0.509%
Cc1ccc(Nc2nnc(-c3ccc(C)c(S(=O)(=O)N4CCOCC4)c3)c3ccccc23)cc1 -17.8% [at 11.5 µM]
Cc1cc(C)c2c(=O)cc(C(=O)Nc3sc4c(c3C(=O)NCC3CCCO3)CCCC4)oc2c1 (stereo not drawn) 9.29%
CCC(=O)C1=C(c2ccc(OC)c(OC)c2)N(C(=O)CC)n2c(nnc2-c2ccc(C)cc2)S1 -4.76%
CC(=O)c1ccc(N2CCN(c3ccc4cc(S(=O)(=O)N5CCCCC5)ccc4n3)CC2)cc1 0%
CCOC(=O)c1ccc(NC(=O)CSc2nc3ccccc3c(=O)n2CCC(=O)NC2CCCCC2)cc1 12.8%
COc1ccc(-c2nc(CS(=O)(=O)CC(=O)NCCc3ccc(C)cc3)c(C)o2)cc1 -10.1%
CC(=O)c1cc(-c2ccccc2)n(CC(=O)Nc2ccc(C)c(C)c2)c1C -27.4%
CCOc1ccc(CNC(=O)CS(=O)(=O)c2cccc3nsnc23)cc1 -12.9%
COc1ccccc1-c1noc(-c2ccc(NC3CCCC3)c([N+](=O)[O-])c2)n1 40%
Cc1cc2nc(-c3ccc(NC(=O)c4ccccc4F)cc3)oc2cc1C 26.9%
CN(C)c1ccc(N=NS(=O)(=O)O)cc1 -15.2% [at 116 µM]
Cc1cccc(C(=O)Nc2ccc3nc(SCCOc4ccccc4)sc3c2)c1 -6.04%
COc1ccc(CCNc2nc(SCc3ccc(Cl)cc3)nc3ccccc23)cc1OC -3.87%
Nc1ncc(S(=O)(=O)Nc2ccc(F)cc2F)cn1 -7.65%
CCc1cnc2c(c1SCC(=O)NCc1ccc(F)cc1)c(=O)n(C)c(=O)n2C -1.93%
Nc1c(C(=O)Nc2cccc(F)c2)c2ccccn2c1C(=O)c1ccccc1 -1.46%
CCOC(=O)c1c(NC(=O)COc2cccc(C)c2C)sc(C(C)=O)c1C -4.68%
COc1ccc(N2CCN(C(c3ccccc3F)c3sc4nc(-c5ccco5)nn4c3O)CC2)cc1 (stereo not drawn) -2.45%
COc1ccc(Cl)cc1NC(=O)Cn1c(=O)c(-c2ccccc2NC(C)=O)nc2ccccc21 -1.34%
COc1ccc(NC(=O)CN2C(=O)COc3ccc(S(=O)(=O)N4CCCCC4)cc32)cc1OC -10.8%
Cc1cc(C)c2c(c1)c(C)cc1nnc(SCC(=O)c3ccc(F)cc3)n12 -2.6%
CCCCC(=O)N1CCc2cc(OC)c(OC)cc2C1COc1ccc(OC)cc1 (stereo not drawn) -28.2%
Cc1ccc(C)c(Cn2c(C(=O)O)c(CNCc3cccs3)c3ccccc32)c1 -25.2%
Cc1cc(-c2ccccc2)n2nc(-c3ccccc3)cc2n1 -15.8%
CN(C)CCNC(=O)C(=O)NCC(c1ccc2c(c1)OCO2)N1CCOCC1 (stereo not drawn) 1.01%
CCOc1ccc(C(c2c(O)cc(C)n(Cc3ccco3)c2=O)N2CCCCC2)cc1 (stereo not drawn) -12.5%
Cc1ccc(NC(=O)CC2Sc3ccc(C(F)(F)F)cc3NC2=O)cc1 (stereo not drawn) -3.38%
COc1ccc(CNC(=O)Nc2cn(CC(C)C)c(=O)c3ccccc23)cc1 -11.5%
CC(=O)c1ccc(NC(=O)CN(C)S(=O)(=O)c2cnc[nH]2)cc1 -10.2%
Cc1ncc(CO)c(C=O)c1O 4.73%
Cc1ccc(OCCSc2nc(C)c(Cc3ccccc3)c(=O)[nH]2)cc1 -11.9%
Cc1cc(C)c(NC(=O)CSc2nncn3c2cc2oc(C)cc23)c(C)c1 0.588%
CCN1C(=O)c2ccccc2C1Nc1ccc(OCCN2CCCCC2)cc1 (stereo not drawn) -0.844%
O=C(CCCc1ccccc1)NC1CC(=O)N(c2ccc(F)cc2)C1 (stereo not drawn) 4.55%
CC(=O)c1cccc(NS(=O)(=O)c2cc3c(cc2C)N(C(C)=O)CCO3)c1 8.54%
Cc1ccc(NC(=O)N2CCC(CN3CCCC3)CC2)c(C)c1 -16.1%
Cc1ccc(-c2nc(C(=O)NCc3ccccc3Cl)c3n2CCCCC3)cc1 -22.9%
CCC(=O)Oc1ccc(C2Nc3ccccc3-c3nnc(SC)nc3O2)cc1 (stereo not drawn) 5.68%
CN1N=C(C(N)=O)CCC1=O 11.8%
Cc1ccc2nc(-c3cc(NC(=O)COc4ccc(C)c(C)c4)ccc3Cl)oc2c1 6.78%
O=C1[C@H]2CCCC[C@H]2C(=O)N1CCCCN1CCN(c2nsc3ccccc23)CC1 -0.335%
COC(=O)c1cc(C)nc2c1c(=O)nc(SCc1ccccc1C)n2C1CC1 -33.2%
Cc1ccc(C(=O)NCC(c2ccc3c(c2)OCO3)N2CCOCC2)cc1 (stereo not drawn) -11.8%
Cc1c(-c2nc(-c3ccc4c(c3)OCO4)no2)nnn1-c1ccc(C(C)C)cc1 1.17%
CCc1nn(CCCC(=O)N2CCN(c3cccc(OC)c3)CC2)c(=O)c2cc3occc3n12 -12.3%
Cc1cccc(NC(=O)C(Cc2ccccc2)NS(=O)(=O)c2ccc3c(c2)c(=O)n(C)c(=O)n3C)c1 (stereo not drawn) -11.9%
